In PubChem BioAssay (Tox21):
The shares of active, inactive and inconclusive entries below differ from those in the screen. Potencies beside an inconclusive call are fits to weak or partial responses and may not hold up. Active and inactive are the calls of the source. The call rests on the fitted dose curve; in most records, active means well fitted cell-killing curve with a large enough effect in the repeat runs; inconclusive means weak or mixed curves, or effect the other way; inactive means no such curve, though single readings can be large or run the other way.

experiment: qHTS assay to identify small molecule antagonists of the peroxisome proliferator-activated receptor gamma (PPARg) signaling pathway - cell viability counter screen (AID 743194); conditions: PPARg-bla HEK293H viability, CellTiter-Glo luminescence, 17 h, co-treated with 50 nM rosiglitazone; activity change, negative = cytotoxicity: at 62.6 µM (top of the series) unless noted; further: nearly all actives have a fitted effect of over 55% in size
Description: U.S. Tox21 Program National Center for Advancing Translational Sciences [NCATS] NIH Chemical Genomics Center [NCGC] U.S. Environmental Protection Agency [EPA] National Institutes of Environmental Health Sciences [NIEHS] National Toxicology Program [NTP] U.S. Food and Drug Administration [FDA] Tox21 Assay Overview: The peroxisome proliferator-activated receptors (PPARs) are lipid-activated transcription factors of the nuclear receptor superfamily with three distinct subtypes namely PPAR alpha, PPAR delta (also called PPAR beta) and PPAR gamma (PPARg). All these subtypes heterodimerize with Retinoid X receptor (RXR) and these heterodimers regulate transcription of various genes. PPAR-gamma receptor (glitazone receptor) is involved in the regulation of glucose and lipid metabolism. To identify the compounds that activate PPAR-gamma signaling, GeneBLAzer PPAR gamma UAS-bla HEK293H cell line (Invitrogen, Carlsbad, CA, USA) containing a beta-lactamase reporter gene under the control of an Upstream Activator Sequence (UAS) was used to screen the Tox21 compound library. The cytotoxicity of the Tox21 compound library against the PPARg-bla cell line was tested in parallel by measuring the cell viability using CellTiter-Glo assay in the same wells.
Tox21 Assay Protocol Summary: PPARg-bla cells were dispensed at 3000 cells/5uL/well in 1536-well black wall/clear bottom plates using a Multidrop Combi (Thermo Fisher Scientific, Waltham, MA) dispenser. After the assay plates were incubated at 37 C and 5% CO2 for 5 h, 23 nL of compounds dissolved in DMSO, positive controls or DMSO only was transferred to the assay plate by a Pintool station (Kalypsys, San Diego, CA), followed by addition of 1ul Rosiglitazone (50 nM, final concentration in the wells). The assay plates were incubated at 37 C for 17 h, and then 1 uL of LiveBLAzerTM B/G FRET substrate was added using a Bioraptr Flying Reagent Dispenser (FRD) workstation (Beckman Coulter, Indianapolis, IN, USA). The assay plates were incubated at room temperature for 1 h and fluorescence intensity was measured by an Envision plate reader (PerkinElmer, Shelton, CT). For cell viability readout that measures cytotoxicity, 4 ul/well of CellTiter-Glo reagent was added into the assay plates using a Flying Reagent Dispenser. After 30 min incubation at room temperature, the luminescence intensity in the plates was measured using a ViewLux plate reader (PerkinElmer).
On the % scale 0 is the no-effect control and ±100 the full control effect; potency means the concentration at half of the fitted maximal effect; tags describe the fitted curve by direction and shape.

Structure (SMILES) | Potency | activity change, negative = cytotoxicity
Cc1ccc2c(c1)c1c3n2CCNC3CCC1 (stereo not given) | inconclusive: 2110 nM [cytotoxic, full curve] | 
COc1cc(-c2ccc(=O)[nH]n2)ccc1OC(F)F | inactive | 
CCOC(=O)CC#N | inactive | 
Cc1cccc2nccnc12 | inactive | 
CN1CCCC1 | inconclusive: 61.6 nM [cytotoxic, full curve, poor fit] | 
N=C(N=C(N)N)N1CCOCC1 | inconclusive: 21.1 nM [cytotoxic, full curve, poor fit] | 
CC(=O)CC(=O)N(C)C | inconclusive: 547 nM [cytotoxic, full curve, poor fit] | 
CCCCNC1CC(C)(C)NC(C)(C)C1 | inconclusive: 17.4 nM [rising, full curve, poor fit] | 
CCOC(=O)OC(C)OC1=C(C(=O)Nc2ccccn2)N(C)S(=O)(=O)c2ccccc21 (stereo not given) | inactive | 
C=Cc1ccc(C=C)cc1 | inconclusive: 5350 nM [cytotoxic, full curve, poor fit] | 
O=C(O)c1ccccc1S | inactive | 
CCn1ccc(NS(=O)(=O)c2ccc(N)cc2)nc1=O | inactive | 
Oc1cc(O)c2c(c1)O[C@H](c1ccc(O)c(O)c1)[C@H](O)C2 | inconclusive: 13300 nM [cytotoxic, partial curve, poor fit] | 
CCC(=O)c1cccc(Cl)c1 | inconclusive: 22300 nM [rising, single point] | 
CC(=O)O[C@@H]1CC2C3CCc4cc(OC(=O)c5ccccc5)ccc4C3CCC2(C)[C@H]1OC(C)=O (stereo not given in full) | inactive | 
COCCOC(=O)c1ccccc1C(=O)OCCOC | inconclusive: 6.2 nM [cytotoxic, full curve, poor fit] | 
O=S(=O)(O)c1ccc2cc(O)c(S(=O)(=O)O)cc2c1 | inactive | 
CCCCC(CC)COC(=O)CCCCC(=O)OCC(CC)CCCC (stereo not given) | inconclusive: 61300 nM [rising, single point] | 
COc1nc(N)nc2nc[nH]c12 | inactive | 
O=C(O)c1cc(Cl)cc(Cl)c1 | inactive | 

Structure (SMILES) | Potency | activity change, negative = cytotoxicity
COc1ccc(OC)c(NC(=O)CC(C)=O)c1 | inactive | 
C/C(=N/NC(=O)c1ccncc1)C(=O)O | inconclusive: 21100 nM [rising, partial curve, poor fit] | 
CNC1(C)C2CCC(C2)C1(C)C (stereo not given) | inactive | 
O=C(O)c1snc(Cl)c1Cl | inconclusive: 49000 nM [rising, partial curve, poor fit] | 
O=C(O)/C=C\C(=O)O | inconclusive: 638 nM [cytotoxic, full curve, poor fit] | 
NCCc1ccn[nH]1 | inactive | 
C[N+]1(C)CCC(OC(=O)C(O)(c2ccccc2)C2CCCC2)C1 (stereo not given) | inactive | 
CCCCOC(=O)CC(CC(=O)OCCCC)(OC(C)=O)C(=O)OCCCC | inconclusive: 221 nM [rising, partial curve, poor fit] | 
O=C1NC(=O)C(c2ccccc2)(c2ccccc2)N1 | inconclusive: 21.1 nM [cytotoxic, partial curve, poor fit] | 
CN1CC(=O)NC1=N | inactive | 
C/C=C/C=C/CO |  | inconclusive: -37.9% [cytotoxic]
CCC[Si](OC)(OC)OC | inconclusive: 155 nM [cytotoxic, full curve, poor fit] | 
C1CN(CCOCCN2CCOCC2)CCO1 | inconclusive: 389 nM [rising, full curve, poor fit] | 
CCCCCCCCC(=O)O | inconclusive: 26.7 nM [rising, full curve] | 
C=C(C)C(=O)OCCOC(=O)CC(C)=O | inconclusive: 13800 nM [rising, partial curve, poor fit] | 
C=CCNCC=C | inconclusive: 10900 nM [rising, full curve, poor fit] | 
CC(C)c1cccc(C(C)C)c1 | inconclusive: 54900 nM [rising, single point] | 
N#Cc1ccc(C(c2ccc(C#N)cc2)n2cncn2)cc1 | inconclusive: 25800 nM [cytotoxic, partial curve, poor fit] | 
CCO | inconclusive: 23400 nM [cytotoxic, single point] | 
CCCN(CCC)C(=O)SCC | inconclusive: 138 nM [cytotoxic, full curve, poor fit] | 
